These results are taken from PubChem BioAssay AID488969 (Vanderbilt High Throughput Screening Facility, 2010).

The full ranking holds about 110,000 compounds; the median of “z-score” is about -0.1, and the highest 2% start at about 2. The list shows a part of the results. Active and inactive are the calls of the source.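 How the source made its calls: active means z-score in the third read window above 3 or below -3; inactive means the rest.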

The target in the experiment is Metabotropic glutamate receptor 8 (Rattus norvegicus) (UniProt P70579). Description: rat mGluR8 modulators via GIRK flux, primary screen, cell-based, thallium flux, HTS (AID 488969). To be noted: HEK293 rat mGluR8, GIRK (G protein-gated inwardly rectifying potassium channel) thallium flux, FluoZin2; at 10 µM; stronger effect = higher value; submaximal glutamate (EC20) added with thallium.
Chain of UniProt P70579 (P70579 whole entry, looked up): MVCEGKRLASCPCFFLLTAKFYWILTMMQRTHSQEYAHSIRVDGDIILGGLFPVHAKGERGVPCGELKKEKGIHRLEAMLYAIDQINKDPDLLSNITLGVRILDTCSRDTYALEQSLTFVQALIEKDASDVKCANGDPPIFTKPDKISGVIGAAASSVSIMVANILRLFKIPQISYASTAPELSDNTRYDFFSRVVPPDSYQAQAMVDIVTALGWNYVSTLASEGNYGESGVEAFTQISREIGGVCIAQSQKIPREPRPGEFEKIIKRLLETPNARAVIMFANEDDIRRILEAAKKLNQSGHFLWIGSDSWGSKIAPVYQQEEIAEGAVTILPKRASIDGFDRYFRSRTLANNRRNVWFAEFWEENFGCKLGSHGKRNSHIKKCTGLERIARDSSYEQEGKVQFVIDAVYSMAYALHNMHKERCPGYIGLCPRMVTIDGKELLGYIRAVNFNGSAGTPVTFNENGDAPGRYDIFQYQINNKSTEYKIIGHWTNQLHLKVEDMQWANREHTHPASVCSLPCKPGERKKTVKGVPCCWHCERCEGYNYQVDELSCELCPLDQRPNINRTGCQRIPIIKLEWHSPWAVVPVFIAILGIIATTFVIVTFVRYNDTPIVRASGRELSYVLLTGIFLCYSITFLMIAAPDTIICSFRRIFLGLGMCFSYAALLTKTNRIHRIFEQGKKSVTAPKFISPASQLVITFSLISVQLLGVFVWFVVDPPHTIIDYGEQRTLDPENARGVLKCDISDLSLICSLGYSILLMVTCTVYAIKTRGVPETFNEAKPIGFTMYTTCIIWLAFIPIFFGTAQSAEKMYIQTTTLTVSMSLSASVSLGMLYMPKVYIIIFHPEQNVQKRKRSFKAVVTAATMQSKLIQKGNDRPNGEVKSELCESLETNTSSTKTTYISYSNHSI
The compound `Cc1sc(NC(=O)C2C3CCC(O3)C2C(=O)O)nc1-c1ccc(CC(C)C)cc1` (configuration not stated) displayed a z-score of -0.216. Compound `Cc1nn(C(C)(C)C)c(N)c1-c1ccccc1` had a z-score of 0.195. The result for `COc1cc(/C=N/NC(=S)Nc2cccc(S(=O)(=O)N(C)C)c2)cc(OC)c1O` reads -0.472; that for `CCC(CC)C(=O)c1c[nH]c(C(=O)NCC2CCCO2)c1` (configuration not stated), 0.307; that for `COc1ccc(CCN2C(=O)CC(N3CCOCC3)C2=O)cc1` (configuration not stated), 0.443. To `COc1ccc(OCc2nnc(SCC(=O)N3CCCc4ccccc43)n2-c2ccc(C)cc2)cc1` belongs 0.689; to `CCn1cc(/C=N/NS(=O)(=O)c2ccc(OC)cc2)c(C)n1`, -0.0801; to `CCOc1ccc(C(O)C(CN2CCOCC2)c2ccccc2)cc1` (configuration not stated), 0.0283. The compound `NC(N)=NS(=O)(=O)c1ccc(NC(=S)NC(=O)/C=C/c2ccco2)cc1` gave a z-score of 0.302.

On to `CCOC(=O)Cn1c(=O)oc2cc(S(=O)(=O)NCc3cccs3)ccc21`, for which the z-score amounted to 0.18.

`Cc1ccc2nc(SCC(=O)NNC(=O)c3ccccc3)[nH]c2c1` yielded a z-score of -0.0561. Compound `Cc1ccccc1N1C(=O)C2C3C=CC(C2C1=O)N(C)C3=O` (configuration not stated) registered a z-score of -0.12. To `CCCOc1ccc(C2C(C(=O)c3ccco3)=C(O)C(=O)N2CCN2CCOCC2)cc1OC` (configuration not stated) belongs 0.22; to `Cc1ccccc1/C(N)=N/OC(=O)c1cccs1`, 0.0732; to `O=C1C2CC=CCC2C(=O)N1c1ccc(NCCc2ccccc2F)c([N+](=O)[O-])c1` (configuration not stated), 0.212. The result for `O=C(O)C1C2C=CC3(CN(CC(O)COc4ccccc4)C(=O)C13)O2` (configuration not stated) reads 0.811. `CCOc1ccccc1C(=O)NC(C)c1ccc2c(c1)OCO2` (configuration not stated) had a z-score of -1.66. `Cc1nc(=O)c(-c2ccccc2)c(C)n1-c1ccc(S(N)(=O)=O)cc1`: the z-score is -0.192. To `O=C(CN1C(=O)C2CC=CCC2C1=O)NCC1COc2ccccc2O1` (configuration not stated) belongs 0.147; to `CN(C)S(=O)(=O)c1ccc2c(c1)nc(CCC(=O)Nc1ccc3c(c1)OCO3)n2C`, -0.278. Compound `O=C(N/N=C/c1c(O)n(-c2ccccc2Cl)c(=O)c2ccccc12)C1COc2ccccc2O1` (configuration not stated) displayed a z-score of -0.893. Consider `O=[N+]([O-])c1cccc(C(=Nc2ccc(Cl)cc2)NO)c1`, for which the z-score was -0.259. Turning to `CCC(C)(C)n1nnnc1C(c1cc2cc(OC)ccc2[nH]c1=O)N1CCc2ccccc21` (configuration not stated), the z-score was -0.479. To `Cc1ccc(/C=N/NC(=O)CNC(=O)COc2ccccc2)o1` belongs 0.62; to `COc1ccc(S(=O)(=O)Nc2ccc(N3CCOCC3)cc2)cc1Br`, 0.132; to `CCOC(=O)/C(C#N)=C\C=C1C=CN(C)C=C1`, -1.89. To `CC(C)CNC(=O)CSc1nnc(-c2ccccn2)n1Cc1ccccc1` belongs -0.0283; to `Cc1ccccc1C(=O)Nc1ccccc1C(=O)N/N=C\c1ccco1`, active: 5.6. To `Cc1cccc(Nc2nnc(SCC3CCCCO3)s2)c1` (configuration not stated) belongs 0.952; to `COc1ccc(C(C)(C)C)cc1NC(=O)C1CC=CCC1C(=O)O` (configuration not stated), -0.209. Compound `O=C(Nc1cc(C(F)(F)F)ccc1N1CCOCC1)c1n[nH]c(=O)c2ccccc12` yielded a z-score of -0.0828. The result for `c1ccc(Cc2nnc3sc(-c4ccc5c(c4)OCCO5)nn23)cc1` reads -1.22; that for `CC1CCCCC1NC(=O)CCn1c(=O)oc2ccccc21` (configuration not stated), 0.309; that for `CCn1c(SCC(=O)C(C)(C)C)nnc1-c1cccnc1`, -0.265.

The compound `CCc1cc2c(N[C@@H](C)C(=O)O)ncnc2s1` yielded a z-score of 0.00833. The result for `Cc1nc2ccc(S(=O)(=O)NCC(=O)NCc3ccc4c(c3)OCO4)cc2s1` reads -0.345; that for `Cc1nc(-n2nnc3ccccc32)c2c3c(sc2n1)CCCC3`, -0.217. `CCC1c2ccc(C)n2CCN1C(=O)Nc1ccccc1C(=O)OC` (configuration not stated): the z-score was active: -3.2. Regarding `O=C(O)C1C2C=CC(C2)C1C(=O)OCC1CCCO1` (configuration not stated), the z-score came to 0.454. With `C=CCSc1nc2sc(C)c(C)c2c(=O)n1CC=C`, the z-score is -0.28. To `Cc1cc(Oc2ccccc2)nc(SCC(=O)Nc2ccc(Cl)cc2Cl)n1` belongs 0.542; to `O=C(C1CCCN(CCCc2ccccc2)C1)N1CCCCCC1` (configuration not stated), 0.123; to `CCOc1ccccc1N1C(=O)c2ccc(C(=O)Nc3cccnc3)cc2C1=O`, 1.04.

Compound `Cn1nnnc1SCC(=O)Nc1ccc(N2CCOCC2)cc1` yielded a z-score of -0.367. The result for `CCOCCn1c(SCc2c(F)cccc2Cl)nc2c1c(=O)[nH]c(=O)n2C` reads 0.197; that for `O=C(CCN1C(=O)c2ccccc2S1(=O)=O)N1CCN(c2ccccc2)CC1`, -0.363. In turn, `CCN(CC)S(=O)(=O)c1ccc(Cl)c(C(=O)Nc2ccc(Cl)cc2[N+](=O)[O-])c1` displayed a z-score of -1.25. Regarding `O=C(NN1CCOCC1)c1cc(S(=O)(=O)Nc2cccc(C(F)(F)F)c2)ccc1Cl`, the z-score was -0.144. The result for `COc1cccc(CNC(=O)CCCCCn2c(=S)[nH]c3ccc(N4CCOCC4)cc3c2=O)c1` reads 0.141; that for `COc1cc(/C=N/NC(=O)C(=O)/C=C2\NC3(CCCC3)Cc3ccccc32)ccc1O`, -1.03. `COc1ccc(/C=N/N(C(C)=O)c2nc(-c3ccc(C)cc3)cs2)cc1` registered a z-score of 0.128.

In the case of `O=C(Cn1cnc2ccccc2c1=O)NCCC(=O)N1CCN(Cc2ccccc2)CC1`, the z-score was determined as 0.259.

For the compound `CN1C(=O)/C(=C/c2ccc3c(c2)OCO3)N=C1c1ccccc1`, the z-score amounted to 0.393.

`O=C(Nc1ccccn1)C12CC3CC(C1)CC(C(=O)Nc1ccccn1)(C3)C2` had a z-score of 0.332. The result for `O=C(N/N=C/c1ccccc1F)NC1CCCCC1` reads -0.329; that for `CS(=O)(=O)N(CC(=O)N1CCN(C(c2ccccc2)c2ccccc2)CC1)C1CCCCC1`, -0.387; that for `O=C(Nc1ccc(N2CCCC2)cc1)C(Cl)c1ccccc1` (configuration not stated), 0.0467. The compound `COc1cccc2c1OCC(C(=O)NCc1ccc(Cl)cc1Cl)=C2` registered a z-score of -0.437. `O=C(O)c1cccc(S(=O)(=O)NCC2CCCO2)c1` (configuration not stated) displayed a z-score of 0.0635. To `CC1=CC(C)(C)N(C(=O)CSc2nnc(N)s2)c2ccccc21` belongs -0.424. To `O=C(/C=C/c1ccc(Cl)cc1Cl)c1cccnc1` belongs 0.344.

For `CCOC(=O)C(NC(=O)c1ccccc1)(N1CCCC1=O)C(F)(F)F` (configuration not stated), the z-score came out at 0.0628. To `O=C(c1cccc(C(F)(F)F)c1)N1CCC(O)(CS(=O)(=O)Cc2ccccc2Cl)CC1` belongs 0.185; to `Cc1cccc(CSc2ccc(-c3ccco3)nn2)c1`, 0.846; to `Cc1nnsc1NC(=O)OCC(C)C`, -0.582.

Compound `C=C(C)C1CCC(C)=C1COC(=O)Nc1ccccc1` (configuration not stated) gave a z-score of -0.437.

The compound `Cc1ccc(N(CC(N)=O)C2SC(=O)N(Cc3ccccc3)C2=O)cc1` (configuration not stated) had a z-score of 0.0113.

With `CCCCNC(=O)/C(C#N)=C/c1ccc2c(c1)OCCO2`, the z-score came to 0.0207. To `COc1ccccc1NC(=O)COc1ccccc1` belongs 0.137; to `c1csc(-n2nc3ccccc3n2)c1`, 0.0592; to `CCN1CCN(CC(=O)N/N=C/c2ccc(F)cc2F)CC1`, -0.212. The result for `CCc1ccccc1N1CSC2=C(C#N)C(c3cc(OC)c(OC)cc3OC)CC(=O)N2C1` (configuration not stated) reads -0.506. `Cc1cc(SCC(=O)N/N=C/c2ccc(O)c(O)c2)c(C)cc1Br`: the z-score is -0.162. To `CCOC(=O)N1CCC(NC(=O)CCS(=O)(=O)c2ccc3c(c2)CCN3C(C)=O)CC1` belongs 0.000338; to `CC(=O)NC(c1cccc([N+](=O)[O-])c1)c1c(OC(C)=O)ccc2ccccc12` (configuration not stated), -0.117; to `COc1ccc(/C=N/OCC(=O)N=Nc2c(O)[nH]c3ccc(Br)cc23)cc1OC`, -0.183.

Compound `Cc1ccc(C(=O)Nc2ccc(Oc3ccc(C(=O)O)c(C(=O)O)c3)cc2)cc1C` registered a z-score of 0.184. Take `COc1ccc(N=Cc2c(O)c3ccccc3oc2=O)cc1`: the z-score is -0.209. The result for `Cc1ccc2c(c1)[nH]c1c(=O)n(CCN3CCNCC3)cnc12` reads 0.907; that for `O=C(COC(=O)c1cn(-c2ccccc2)nc1-c1ccc(F)cc1)Nc1ncc(Cl)cc1Cl`, 0.0446; that for `COc1ccc(N(C(=O)C(C)C)S(=O)(=O)c2cccc3cccnc23)cc1`, -0.207. The result for `COC(=O)c1c(-n2c(C)cc(C=O)c2C)sc2c1CCCC2` reads -0.627. The result for `C=CCN1C(=O)/C(=C/c2ccc(OC)cc2)S/C1=N/c1nccs1` reads -0.219; that for `CCOC(=O)C1=C(CSc2nc(-c3ccccc3)ccc2C#N)OC(N)=C(C#N)C1c1ccccc1` (configuration not stated), 2.03; that for `CC(C)C(c1nnnn1C1CCCC1)N1CCCc2ccccc21` (configuration not stated), -0.471.

The compound `S=c1[nH]nc(-c2ccco2)n1C1CCCCC1` gave a z-score of -0.0951.

The compound `COc1cc2c(cc1OC)CN(CC(=O)Nc1ccc3c(c1)OCO3)CC2` showed a z-score of 0.142. To `COc1ccc(C(=O)C(OC(=O)CNC(=O)c2ccco2)c2ccccc2)cc1` (configuration not stated) belongs -0.387. The result for `Cc1ccc(Cl)c(OC(=O)c2nn(C(C)C)c(=O)c3ccccc23)c1` reads 0.19; that for `Cc1cc(Cl)ccc1OCc1nc(-c2ccc(O)cc2)n[nH]1`, 0.667. The result for `COCC(C)n1c(C)cc(C(=O)CN2C(=O)NC(Cc3c[nH]c4ccccc34)C2=O)c1C` (configuration not stated) reads 0.124. With `Cc1ccc(C)c(N2CCN(C(=O)CCCOc3cc(=O)n(C)c4ccccc34)CC2)c1`, the z-score was -0.499.

`COc1ccc(CC(=O)n2nc(-c3ccccc3)nc2NCc2ccco2)cc1`: the z-score was 0.156. To `COC(=O)c1ccc(NC(=O)Nc2ccc(C)cc2)cc1` belongs -0.177. Compound `Cc1c(NC(=O)CC(C)C)c(=O)n(-c2ccccc2)n1C` yielded a z-score of -0.124. The result for `COc1cccc(-c2nnn(CCc3nn[nH]n3)n2)c1` reads -0.296; that for `O=C(NC1CCCCC1)C(c1ccc2ncccc2c1)N(Cc1ccc(F)cc1)C(=O)c1cccs1` (configuration not stated), -1.37. To `CCC(=O)N1CCc2cc(S(=O)(=O)NC(C(=O)NCc3ccc(C)cc3)C(C)C)ccc21` (configuration not stated) belongs -0.0271. To `O=C(CSc1nc2nc3c(cc2c(=O)n1-c1ccccc1)CCCC3)Nc1cccc2ccccc12` belongs -0.235; to `CC(=C1C(=O)c2ccccc2C1=O)N1CCN(c2ccccn2)CC1`, -0.168; to `Cc1sc(NC(=O)CSc2nnc(COc3ccccc3)n2C)c(C#N)c1C`, -0.0357. `Cc1cc(C)cc(-n2nnnc2SCC(=O)Nc2nc(-c3ccc(Cl)cc3)cs2)c1` gave a z-score of -0.402.

With `Cc1ccc(C)c(OC(=O)c2ccncc2)c1`, the z-score stood at 0.332. Turning to `CCCCOc1ccc(S(=O)(=O)n2c(C)nc3ccccc32)cc1`, the z-score amounted to 0.0747. The result for `CC(=O)Nc1ccc(C(=O)NNC(=O)CCc2ccccc2)cc1` reads -0.185; that for `O=C(Nc1ccc2c(c1)CCC2)c1ccc(F)c(S(=O)(=O)N2CCOCC2)c1`, 0.196. Compound `COC(=O)c1cc(C)sc1NC(=O)C1CC(=O)NN1Cc1ccccc1` (configuration not stated) showed a z-score of -0.194.
